Assay results as given in ChEMBL document CHEMBL4888484, “Replenishing the malaria drug discovery pipeline: Screening and hit evaluation of the MMV Hit Generation Library 1 (HGL1) against asexual blood stage Plasmodium falciparum ,using a nano luciferase reporter read-out” (2022).
Values joined by “and” are separate entries in the source; they are usually repeats but may differ in a detail not shown here. Identical values can stand only once. The campaign covered roughly 150,000 compounds. About 540 (0.36%) showed an effect of 50% or more. This is one part of the list.

Tested on: Plasmodium falciparum
Assay: Primary screen in NF54 nanoGlo assay, in single point, at 2uM, 72h; a lower Z score goes with more inhibition
Type: functional, Erythrocyte
Conditions: timepoint 72 hour

Row | SMILES | % Inhibition [%] | Z score | % Inhibition (2 µM)
1 | CN(C)CCN(C)c1ccc(Br)cc1NCc1cnn(C)n1 | -12 | 1.77 | 
2 | Cc1ccc2nccc(C(=O)N3CCC[C@H](Cn4cc(C(C)(C)N)nn4)C3)c2c1 | -6 | 0.76 | 
3 | C[C@H]1CN(CCC(=O)N2CCc3ccccc3C2)CC[C@]1(O)C1CC1 | 8 | -1.5 | 
4 | Nc1nc2c(c(N3CC=CC3)n1)CCN(C(=O)N1CCCCC1)CC2 | -2 | 0.24 | 
5 | C[C@H]1CN(C(=O)c2cccnc2C2CC2)CCN1C(=O)c1cccnc1C1CC1 | -4 | 0.69 | 
6 | COc1c(F)cc(C[C@@H]2CC[C@H](CN3CCCOCC3)O2)cc1F | -6 | 0.79 | 
7 | CCC1C(C)CCN1S(=O)(=O)CCc1noc2ccccc12 (configuration not stated) | -15 | 2 | 
8 | C[C@H]1COCCN1C(=O)CN1C(=O)COc2ccc(Cl)cc21 | -8 | 1.26 | 
9 | COc1ccc(NC(=O)c2ccccc2NCc2cc3c(cc2Br)OCO3)cc1 | -34 | 4.01 | 
10 | C#CC(C)NC(=O)NC1CCC(C(=O)OC)C1 (configuration not stated) | -6 | 0.81 | 
11 | CC(C)c1nc(N2CCN(Cc3ccc(C(=O)O)cc3)CC2)no1 | 0 | 0.07 | 
12 | CN(C)CCOC(=O)c1ccc(F)cc1 |  |  | 4% and -8%
13 | Cc1cc(C(=O)NCc2ccccn2)nn1-c1ccc(F)cc1F | -2 | 0.22 | 
14 | Cc1nc(C(=O)Nc2cccc(N3CCCCC3)c2)nn1-c1ccccc1Cl | -23 | 2.3 | 
15 | Cc1ccc2c(NC(=O)c3cccs3)cccc2n1 | -10 | 2 | 
16 | CC[C@H]1c2cccn2CCN1C(=O)CN(C)S(=O)(=O)c1ccc(Br)cc1 | 1 | -0.17 | 
17 | COC(=O)c1ccc(Cl)c(CN2CC3OCCN(C)C3C2)c1 (configuration not stated) | -6 | 0.56 | 
18 | COCCN(Cc1ccc(OC)c(OC)c1)Cc1ccc(C(O)(c2ccc(OC)cc2)c2ccc(OC)cc2)o1 | 3 | -0.46 | 
19 | CCC[C@H]1CN(C(=O)CNC)C[C@@H]1Nc1cc(C2CC2)ncn1 | -6 | 0.98 | 
20 | COc1ccc2c(c1)Oc1ccccc1N=C2N1CCN(C(=O)Nc2cccc(C(F)(F)F)c2)[C@@H](C)C1 | 2 | -0.19 | 
21 | CNC(=O)Cc1nc(CN2CCNC(=O)[C@@H]2c2ccc(F)cc2C)cs1 | -11 | 2.04 | 
22 | O=S1(=O)CC[C@H](Cc2nc(C3CC3)n[nH]2)C1 | -17 | 2.1 | 
23 | O=C(Nc1ccccc1C1CC1)N[C@@H]1CCNC1 | 10 | -1.93 | 
24 | Cc1cc(-c2ccccc2)nc(Oc2cccc(C(F)(F)F)c2)c1S(=O)(=O)c1ccc(Cl)cc1 | -8 | 1.21 | 
25 | CCc1nc(C)c(CN2CC[C@H](CC(F)(F)F)C2)o1 | 1 | -0.06 | 
26 | CCn1cc(CCN2CCN(S(=O)(=O)c3cccs3)CC2)c2cccnc21 | -8 | 0.91 | 
27 | Cc1ccc(S(=O)(=O)N2CC(n3nccn3)C2)cc1Cl | -7 | 0.81 | 

Row | SMILES | % Inhibition [%] | Z score | % Inhibition (2 µM)
28 | Cc1nc(CC(C)C)cc(C(=O)N(C)Cc2cc(C(C)C)no2)n1 | -5 | 0.93 | 
29 | CCc1nnc(Cn2cc(CN3C[C@@H](C)O[C@@H](C)C3)nn2)o1 | 10 | -1.71 | 
30 | CCOc1ccccc1CNc1ccc2nccnc2c1 | 1 | -0.09 | 
31 | Clc1ccc(-c2nnc(-c3ccccc3)nc2N2CCOCC2)cc1 | -13 | 1.47 | 
32 | O=S(=O)(CCC(F)(F)F)N1CCC[C@H](Cc2nc(C3CC3)no2)C1 | 5 | -0.72 | 
33 | Cn1c(NC(=O)CC2=CCCCC2)nnc1C1CC1 | 9 | -1 | 
34 | CC1NC(=O)C(C)N(Cc2cnc3ccccc3c2)C1C (configuration not stated) | 0 | -0.06 | 
35 | CN(CCC(=O)NCc1cccc(Cl)c1)C[C@H]1COCCO1 | -8 | 1.03 | 
36 | CCc1nc(-c2cccc(NC(=O)c3ccccc3)c2)no1 | -24 | 4.14 | 
37 | CO[C@@H](C)c1nc(COc2ccc(C(C)(C)C)cc2)n[nH]1 | -20 | 2.29 | 
38 | O=C(c1cnn(-c2ccccc2)c1)N1CCC[C@H]1c1nnc2ccccn12 | 19 | -2.42 | 
39 | CC(Oc1ccccc1)C(=O)Nc1cccc(NC(=O)C(C)Oc2ccccc2)n1 (configuration not stated) | -9 | 1.22 | 
40 | COc1cn(CC(=O)NC(C)C)c(CN2CCCCC2)cc1=O | -1 | 0.24 | 
41 | O=C(Cn1nnnc1CN1CCCCCC1)N[C@@H]1COC2(CCCC2)C1 | 5 | -0.62 | 
42 | O=C(NC[C@H](O)c1ccc2c(c1)CCO2)c1ccco1 | 12 | -1.51 | 
43 | O=C(c1ccccc1-c1ccccc1)N1CCN(S(=O)(=O)[C@H]2CCS(=O)(=O)C2)CC1 | 5 | -0.7 | 
44 | C[C@@H](CN(C)c1cnccn1)N1CCOCC1 | 2 | -0.37 | 
45 | Cc1c(N[C@@H](C)C(C)C)cccc1C(=O)N(C)CC#N | -5 | 0.63 | 
46 | C[C@H](C(=O)NCc1ccccc1F)C1CCN(C(=O)c2cc3ccccc3[nH]2)CC1 | -3 | 0.6 | 
47 | COc1cccc(-c2cc(C(=O)O)cc(S(=O)(=O)N3CCCCCC3)c2)c1OC | -6 | 0.79 | 
48 | O=C(NC[C@H]1CCCCN1S(=O)(=O)c1cc(F)ccc1F)Nc1ccccc1 | -4 | 0.43 | 
49 | O=S(=O)(NC[C@H]1COCc2nc3ccccc3n21)c1ccccc1 | -10 | 1.94 | 
50 | C[C@@H](c1nc(C(C)(C)C)no1)N1CCCC1 | -9 | 1.77 | 
51 | C[C@@H](c1nc2ccccc2c(=O)[nH]1)N1CCN(C(=O)c2ccco2)CC1 | -2 | 0.35 | 
52 | NC(=O)CC1CCN(CC(=O)NC2CCCCCC2)CC1 | -7 | 1.13 | 
53 | O=C(NCCN1CCOCC1)[C@H]1CC(=O)N(c2n[nH]c3ccccc23)C1 | -3 | 0.43 | 
54 | Cc1cccc(CN2CCCn3cccc3[C@H]2c2cccc(Oc3ccccc3)c2)c1 | -25 | 2.44 | 
